Patent US9872922B2, “Anti-EFNA4 antibody-drug conjugates” (PFIZER, INC., priority 2013, dated 2018)

Key:
Ephrin-A1 (EFNA1) = target: T1, Ephrin-A1 (EFNA1) (Homo sapiens, UniProt P20827); experiment: Direct ELISA binding specificity, Ephrin-A1; settings: biotin-labeled antibody
T1 construct: His; purchased R&D
T1 sequence (P20827 19-182): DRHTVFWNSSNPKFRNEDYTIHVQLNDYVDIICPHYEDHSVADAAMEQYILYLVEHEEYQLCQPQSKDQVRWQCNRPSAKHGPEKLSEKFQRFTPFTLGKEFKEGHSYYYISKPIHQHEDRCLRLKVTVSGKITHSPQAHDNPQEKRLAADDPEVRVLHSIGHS
Method: (§1) Further properties were determined using ELISA to analyze the binding specificity of anti-EFNA4 antibodies huE22 and huE47 to Ephrin-A4 (EFNA4) along with homologous family members Ephrin-A1 (EFNA1) and Ephrin-A3 (EFNA3). Antibody binding was determined by direct ELISA with Ephrin-A1-His, Ephrin-A3-huFc, Ephrin-A4-huFc and Ephrin-A5-huFc (all from R&D) coated on BioOne Microlon (Greiner) plates in PBS overnight at 4° C. Biotin-labeled huE22 and huE47 were incubated on the plate for 2.5 hours at room temperature and Streptavidin HRP was used to develop signal from biotin labeled antibody in the absence of interfering human IgG signal.

Z138 = experiment: Flow cytometry antibody binding (MCF), Z138; settings: 10 μg/ml antibody; Z138, MCL
Method: (§2) Binding of humanized anti-EFNA4 antibodies huE22 and huE47 was assessed on EFNA4 expressing cells by flow cytometry. Adherent cells were dissociated using TrpLE Express (GIBCO cat #12604-021), neutralized with cell culture media and counted. Cells were plated into a U-bottom 96-well plate (BD Falcon cat #353077) with 5×10e5 cells/100 μL media/well. The plate was centrifuged at 300×g, 5 minutes, 4° C. to pellet cells and the supernatant was discarded. All reagents were kept on ice for the following steps. Each pellet was resuspended in 100 μL primary humanized anti-EFNA4 antibody (huE22 or huE47) or negative control antibody at 10 μg/mL in 3% BSA in PBS. The plate was incubated on ice for 30 minutes. The plate was centrifuged and the cell pellets were washed in 200 μL 3% BSA in PBS. Each cell pellet was resuspended in 100 μL of R-phycoerythrin (PE)-conjugated goat anti-human IgG Fc fragment (Jackson ImmunoResearch cat #109-115-098) that had been diluted 1:50 in 3% BSA in PBS. The plate was incubated on ice for 30 minutes. […] The samples were analyzed by flow cytometry using 5 μL 7AAD (B-D Pharmingen cat #51-68981E) per sample as a viability stain.
(§3) Endogenous EFNA4 expressing cancer cell lines were analyzed: Breast cell lines BT-483, HCC202 and MX-1, Chronic Lymphocytic Leukemia (CLL) cell line MEC1 and mantle cell lymphoma (MCL) cell line Z138.

HCC202 = experiment: Flow cytometry antibody binding (MCF), HCC202; settings: 10 μg/ml antibody; HCC202, Breast
Method: as §2, §3

BT-483 = experiment: Flow cytometry antibody binding (MCF), BT-483; settings: 10 μg/ml antibody; BT-483, Breast
Method: as §2, §3

Ephrin-A3 (EFNA3) = target: T2, Ephrin-A3 (EFNA3) (Homo sapiens, UniProt P52797); experiment: Direct ELISA binding specificity, Ephrin-A3; settings: biotin-labeled antibody
T2 construct: purchased R&D
T2 sequence (P52797 23-214): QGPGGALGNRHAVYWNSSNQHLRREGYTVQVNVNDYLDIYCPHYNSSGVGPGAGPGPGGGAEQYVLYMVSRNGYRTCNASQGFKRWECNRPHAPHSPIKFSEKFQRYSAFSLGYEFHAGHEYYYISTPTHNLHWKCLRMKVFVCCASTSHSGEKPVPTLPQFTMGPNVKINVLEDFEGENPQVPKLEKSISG
Method: as §1

Ephrin-A4 (EFNA4) = target: T3, Ephrin-A4 (EFNA4) (Homo sapiens, UniProt P52798); experiment: Direct ELISA binding specificity, Ephrin-A4; settings: biotin-labeled antibody
T3 construct: purchased R&D
T3 sequence (P52798 26-170): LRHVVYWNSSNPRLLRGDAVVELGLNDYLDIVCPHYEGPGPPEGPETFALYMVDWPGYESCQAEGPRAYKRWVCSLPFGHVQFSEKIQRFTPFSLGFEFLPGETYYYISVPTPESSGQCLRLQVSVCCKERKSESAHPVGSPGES
Method: as §1

MEC1 = experiment: Flow cytometry antibody binding (MCF), MEC1; settings: 10 μg/ml antibody; MEC1, B-CLL
Method: as §2, §3

HEK293T-EFNA4 cells = experiment: Flow cytometry antibody binding (MCF), HEK293T-EFNA4; set-up: species or system human; settings: 10 μg/ml antibody; HEK293T-EFNA4, high expression of EFNA4
Method: Binding of humanized anti-EFNA4 antibodies huE22 and huE47 was assessed on EFNA4 expressing cells by flow cytometry. Adherent cells were dissociated using TrpLE Express (GIBCO cat #12604-021), neutralized with cell culture media and counted. Cells were plated into a U-bottom 96-well plate (BD Falcon cat #353077) with 5×10e5 cells/100 μL media/well. The plate was centrifuged at 300×g, 5 minutes, 4° C. to pellet cells and the supernatant was discarded. All reagents were kept on ice for the following steps. Each pellet was resuspended in 100 μL primary humanized anti-EFNA4 antibody (huE22 or huE47) or negative control antibody at 10 μg/mL in 3% BSA in PBS. The plate was incubated on ice for 30 minutes. The plate was centrifuged and the cell pellets were washed in 200 μL 3% BSA in PBS. Each cell pellet was resuspended in 100 μL of R-phycoerythrin (PE)-conjugated goat anti-human IgG Fc fragment (Jackson ImmunoResearch cat #109-115-098) that had been diluted 1:50 in 3% BSA in PBS. […] The samples were analyzed by flow cytometry using 5 μL 7AAD (B-D Pharmingen cat #51-68981E) per sample as a viability stain.
Antibody binding was measured in the manner described above for HEK293T parental cells, which express very low levels of EFNA4, and HEK293T-EFNA4 cells which are stable transfectants of HEK293T with a vector that enables high expression of human EFNA4.

MX-1 = experiment: Flow cytometry antibody binding (MCF), MX-1; settings: 10 μg/ml antibody; MX-1, Breast
Method: as §2, §3

binding to Ephrin-A1 (EFNA1) (Ephrin-A1 (EFNA1)): but not EFNA1 or EFNA3
Mean Channel Fluorescent (MCF) (Z138): 44
Mean Channel Fluorescent (MCF) (HCC202): 21.9
Mean Channel Fluorescent (MCF) (BT-483): 24
binding to Ephrin-A3 (EFNA3) (Ephrin-A3 (EFNA3)): but not EFNA1 or EFNA3
binding to Ephrin-A4 (EFNA4) (Ephrin-A4 (EFNA4)): binds to EFNA4
Mean Channel Fluorescent (MCF) (MEC1): 33
Mean Channel Fluorescent (MCF) (MX-1): 21.1
B1: huE47: humanized antibody E47, heavy chain SEQ ID NO: 51, light chain SEQ ID NO: 63 (antibody)
heavy: QVQLVQSGAEVKKPGASVKVSCKASGYTFTYFYMNWVRQAPGQGLEWVGQINPNNGGTAYAQKFQGRVTMTRDTSTSTVYMELSSLRSEDTAVYYCARWVGTHYFDYWGQGTTLTVSS[human IgG1 constant region omitted here]
light: EIVLTQSPATLSLSPGERATLSCRASQSVSSSSYTYIHWYQQKPGQAPRLLINFASNLESGIPARFSGSGSGTDFTLTISSLEPEDFAVYYCQHSWEIPPTFGGGTKLEIKRTVAAPSVFIFPPSDEQLKSGTASVVCLLNNFYPREAKVQWKVDNALQSGNSQESVTEQDSKDSTYSLSSTLTLSKADYEKHKVYACEVTHQGLSSPVTKSFNRGEC
Mean Channel Fluorescence (MCF) (HEK293T-EFNA4 cells): 576
